In the supplement of paper PMC11876631:
± gives the standard deviation of the averaged measurements. Laboratory Escherichia coli strains with one amino-acid change in an essential protein, pooled on minimal glucose agar with carbenicillin or gentamicin at twice the control MIC (plus kanamycin and chloramphenicol for the plasmids), 48 h. Fold change of barcode share against drug-free plates; higher = less susceptible. Active = above 20 in both replicates (the paper's putatively resistant). '<' = one read or none on drug, '>' = one read or none on a drug-free plate. Shares are relative, so most strains fall below 1 when a few take over. Listed are strains with at least 15 reads on both drug-free plates, and hits; most hits rest on fewer reference reads. Replicate rank correlation about 0.5. Edits are read from barcodes.

Target: Escherichia coli (laboratory strain)
Assay: barcode share on antibiotic plates over drug-free plates; higher = less susceptible
Method: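 A pool of E. coli strains, each edited to carry one amino-acid change in an essential protein, was grown for 48 h on minimal glucose agar with or without antibiotic; strain barcodes were sequenced; mean of two replicates.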

[1] = antibiotic: carbenicillin, 2× MIC (3.1 µg/mL)
[2] = antibiotic: gentamicin, 2× MIC (MIC 0.45 µg/mL)

| Protein | fold change of barcode share [1] | fold change of barcode share [2] |
| --- | --- | --- |
| adk F109Q (protein) MRIILLGAPGAGKGTQAQFIMEKYGIPQISTGDMLRAAVKSGSELGKQAKDIMDAGKLVTDELVIALVKERIAQEDCRNGFLLDGFPRTIPQADAMKEAGINVDYVLEQDVPDELIVDRIVGRRVHAPSGRVYHVKFNPPKVEGKDDVTGEELTTRKDDQEETVRKRLVEYHQMTAPLIGYYSKEAEAGNTKYAKVDGTKPVAEVRADLEKILG | 0.245 ± 0.028 | 0.00457 ± 0.0042 |
| adk F109P (protein) MRIILLGAPGAGKGTQAQFIMEKYGIPQISTGDMLRAAVKSGSELGKQAKDIMDAGKLVTDELVIALVKERIAQEDCRNGFLLDGFPRTIPQADAMKEAGINVDYVLEPDVPDELIVDRIVGRRVHAPSGRVYHVKFNPPKVEGKDDVTGEELTTRKDDQEETVRKRLVEYHQMTAPLIGYYSKEAEAGNTKYAKVDGTKPVAEVRADLEKILG | 2.77 ± 2.2 |  |
| eno L112A (protein) MSKIVKIIGREIIDSRGNPTVEAEVHLEGGFVGMAAAPSGASTGSREALELRDGDKSRFLGKGVTKAVAAVNGPIAQALIGKDAKDQAGIDKIMIDLDGTENKSKFGANAIAAVSLANAKAAAAAKGMPLYEHIAELNGTPGKYSMPVPMMNIINGGEHADNNVDIQEFMIQPVGAKTVKEAIRMGSEVFHHLAKVLKAKGMNTAVGDEGGYAPNLGSNAEALAVIAEAVKAAGYELGKDITLAMDCAASEFYKDGKYVLAGEGNKAFTSEEFTHFLEELTKQYPIVSIEDGLDESDWDGFAYQTKVLGDKIQLVGDDLFVTNTKILKEGIEKGIANSILIKFNQIGSLTETLAAIKMAKDAGYTAVISHRSGETEDATIADLAVGTAAGQIKTGSMSRSDRVAKYNQLIRIEEALGEKAPYNGRKEIKGQA | 0.612 ± 0.22 | 0.0187 ± 0.013 |
| eno V114P (protein) MSKIVKIIGREIIDSRGNPTVEAEVHLEGGFVGMAAAPSGASTGSREALELRDGDKSRFLGKGVTKAVAAVNGPIAQALIGKDAKDQAGIDKIMIDLDGTENKSKFGANAILAPSLANAKAAAAAKGMPLYEHIAELNGTPGKYSMPVPMMNIINGGEHADNNVDIQEFMIQPVGAKTVKEAIRMGSEVFHHLAKVLKAKGMNTAVGDEGGYAPNLGSNAEALAVIAEAVKAAGYELGKDITLAMDCAASEFYKDGKYVLAGEGNKAFTSEEFTHFLEELTKQYPIVSIEDGLDESDWDGFAYQTKVLGDKIQLVGDDLFVTNTKILKEGIEKGIANSILIKFNQIGSLTETLAAIKMAKDAGYTAVISHRSGETEDATIADLAVGTAAGQIKTGSMSRSDRVAKYNQLIRIEEALGEKAPYNGRKEIKGQA | 0.32 ± 0.039 | 0.0206 ± 0.02 |
| eno V114Q (protein) MSKIVKIIGREIIDSRGNPTVEAEVHLEGGFVGMAAAPSGASTGSREALELRDGDKSRFLGKGVTKAVAAVNGPIAQALIGKDAKDQAGIDKIMIDLDGTENKSKFGANAILAQSLANAKAAAAAKGMPLYEHIAELNGTPGKYSMPVPMMNIINGGEHADNNVDIQEFMIQPVGAKTVKEAIRMGSEVFHHLAKVLKAKGMNTAVGDEGGYAPNLGSNAEALAVIAEAVKAAGYELGKDITLAMDCAASEFYKDGKYVLAGEGNKAFTSEEFTHFLEELTKQYPIVSIEDGLDESDWDGFAYQTKVLGDKIQLVGDDLFVTNTKILKEGIEKGIANSILIKFNQIGSLTETLAAIKMAKDAGYTAVISHRSGETEDATIADLAVGTAAGQIKTGSMSRSDRVAKYNQLIRIEEALGEKAPYNGRKEIKGQA | 0.883 ± 0.31 |  |
| eno L112D (protein) MSKIVKIIGREIIDSRGNPTVEAEVHLEGGFVGMAAAPSGASTGSREALELRDGDKSRFLGKGVTKAVAAVNGPIAQALIGKDAKDQAGIDKIMIDLDGTENKSKFGANAIDAVSLANAKAAAAAKGMPLYEHIAELNGTPGKYSMPVPMMNIINGGEHADNNVDIQEFMIQPVGAKTVKEAIRMGSEVFHHLAKVLKAKGMNTAVGDEGGYAPNLGSNAEALAVIAEAVKAAGYELGKDITLAMDCAASEFYKDGKYVLAGEGNKAFTSEEFTHFLEELTKQYPIVSIEDGLDESDWDGFAYQTKVLGDKIQLVGDDLFVTNTKILKEGIEKGIANSILIKFNQIGSLTETLAAIKMAKDAGYTAVISHRSGETEDATIADLAVGTAAGQIKTGSMSRSDRVAKYNQLIRIEEALGEKAPYNGRKEIKGQA | 0.593 ± 0.096 | 0.112 ± 0.14 |
| eno I171A (protein) MSKIVKIIGREIIDSRGNPTVEAEVHLEGGFVGMAAAPSGASTGSREALELRDGDKSRFLGKGVTKAVAAVNGPIAQALIGKDAKDQAGIDKIMIDLDGTENKSKFGANAILAVSLANAKAAAAAKGMPLYEHIAELNGTPGKYSMPVPMMNIINGGEHADNNVDIQEFMAQPVGAKTVKEAIRMGSEVFHHLAKVLKAKGMNTAVGDEGGYAPNLGSNAEALAVIAEAVKAAGYELGKDITLAMDCAASEFYKDGKYVLAGEGNKAFTSEEFTHFLEELTKQYPIVSIEDGLDESDWDGFAYQTKVLGDKIQLVGDDLFVTNTKILKEGIEKGIANSILIKFNQIGSLTETLAAIKMAKDAGYTAVISHRSGETEDATIADLAVGTAAGQIKTGSMSRSDRVAKYNQLIRIEEALGEKAPYNGRKEIKGQA | 0.327 ± 0.017 | < 0.00506 |
| eno V114A (protein) MSKIVKIIGREIIDSRGNPTVEAEVHLEGGFVGMAAAPSGASTGSREALELRDGDKSRFLGKGVTKAVAAVNGPIAQALIGKDAKDQAGIDKIMIDLDGTENKSKFGANAILAASLANAKAAAAAKGMPLYEHIAELNGTPGKYSMPVPMMNIINGGEHADNNVDIQEFMIQPVGAKTVKEAIRMGSEVFHHLAKVLKAKGMNTAVGDEGGYAPNLGSNAEALAVIAEAVKAAGYELGKDITLAMDCAASEFYKDGKYVLAGEGNKAFTSEEFTHFLEELTKQYPIVSIEDGLDESDWDGFAYQTKVLGDKIQLVGDDLFVTNTKILKEGIEKGIANSILIKFNQIGSLTETLAAIKMAKDAGYTAVISHRSGETEDATIADLAVGTAAGQIKTGSMSRSDRVAKYNQLIRIEEALGEKAPYNGRKEIKGQA | 0.167 ± 0.046 | < 0.00674 |
| argA V62A (protein) MVKERKTELVEGFRHSVPYINTHRGKTFVIMLGGEAIEHENFSSIVNDIGLLHSLGIRLVVAYGARPQIDANLAAHHHEPLYHKNIRVTDAKTLELVKQAAGTLQLDITARLSMSLNNTPLQGAHINVVSGNFIIAQPLGVDDGVDYCHSGRIRRIDEDAIHRQLDSGAIVLMGPVAVSVTGESFNLTSEEIATQLAIKLKAEKMIGFCSSQGVTNDDGDIVSELFPNEAQARVEAQEEKGDYNSGTVRFLRGAVKACRSGVRRCHLISYQEDGALLQELFSRDGIGTQIVMESAEQIRRATINDIGGILELIRPLEQQGILVRRSREQLEMEIDKFTIIQRDNTTIACAALYPFPEEKIGEMACVAVHPDYRSSSRGEVLLERIAAQAKQSGLSKLFVLTTRSIHWFQERGFTPVDIDLLPESKKQLYNYQRKSKVLMADLG | 0.603 ± 0.36 | 0.0151 ± 0.0037 |
| dxr F135A (protein) MKQLTILGSTGSIGCSTLDVVRHNPEHFRVVALVAGKNVTRMVEQCLEFSPRYAVMDDEASAKLLKTMLQQQGSRTEVLSGQQAACDMAALEDVDQVMAAIVGAAGLLPTLAAIRAGKTILLANKESLVTCGRLAMDAVKQSKAQLLPVDSEHNAIFQSLPQPIQHNLGYADLEQNGVVSILLTGSGGPFRETPLRDLATMTPDQACRHPNWSMGRKISVDSATMMNKGLEYIEARWLFNASASQMEVLIHPQSVIHSMVRYQDGSVLAQLGEPDMRTPIAHTMAWPNRVNSGVKPLDFCKLSALTFAAPDYDRYPCLKLAMEAFEQGQAATTALNAANEITVAAFLAQQIRFTDIAALNLSVLEKMDMREPQCVDDVLSVDANAREVARKEVMRLAS | 0.44 ± 0.22 | < 0.00594 |
| dxr F135W (protein) MKQLTILGSTGSIGCSTLDVVRHNPEHFRVVALVAGKNVTRMVEQCLEFSPRYAVMDDEASAKLLKTMLQQQGSRTEVLSGQQAACDMAALEDVDQVMAAIVGAAGLLPTLAAIRAGKTILLANKESLVTCGRLWMDAVKQSKAQLLPVDSEHNAIFQSLPQPIQHNLGYADLEQNGVVSILLTGSGGPFRETPLRDLATMTPDQACRHPNWSMGRKISVDSATMMNKGLEYIEARWLFNASASQMEVLIHPQSVIHSMVRYQDGSVLAQLGEPDMRTPIAHTMAWPNRVNSGVKPLDFCKLSALTFAAPDYDRYPCLKLAMEAFEQGQAATTALNAANEITVAAFLAQQIRFTDIAALNLSVLEKMDMREPQCVDDVLSVDANAREVARKEVMRLAS | 0.29 ± 0.12 | < 0.00698 |
| dxr F135Q (protein) MKQLTILGSTGSIGCSTLDVVRHNPEHFRVVALVAGKNVTRMVEQCLEFSPRYAVMDDEASAKLLKTMLQQQGSRTEVLSGQQAACDMAALEDVDQVMAAIVGAAGLLPTLAAIRAGKTILLANKESLVTCGRLQMDAVKQSKAQLLPVDSEHNAIFQSLPQPIQHNLGYADLEQNGVVSILLTGSGGPFRETPLRDLATMTPDQACRHPNWSMGRKISVDSATMMNKGLEYIEARWLFNASASQMEVLIHPQSVIHSMVRYQDGSVLAQLGEPDMRTPIAHTMAWPNRVNSGVKPLDFCKLSALTFAAPDYDRYPCLKLAMEAFEQGQAATTALNAANEITVAAFLAQQIRFTDIAALNLSVLEKMDMREPQCVDDVLSVDANAREVARKEVMRLAS | 0.183 ± 0.005 | 0.122 ± 0.075 |
